# “And” between values parts separate entries of the source, which are not always exact repeats. Equal entries are not always repeated. The source holds several records for some structures; these can differ, active in one and inactive in another. The source made the active and inactive calls. Unless noted, calls follow the shape of the dose curve; as a rule, active = well fitted curve in the direction sought with a large enough effect in the repeat runs; inconclusive = weak or mixed curves; inactive = no such curve, though single readings can be large; an effect the other way counts as inactive or inconclusive.
# Key:
# [1] = qHTS assay for small molecule agonists of the p53 signaling pathway (AID 651631; calls by dose curve; also: nearly all actives have a fitted effect of over 15% in size); settings: HCT-116 p53RE-bla reporter, beta-lactamase FRET ratio, 16 h; activation: at 73.3 µM (top of the series) unless noted
# Procedure, shortened: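 Beta-lactamase reporter activity under p53 response elements was quantified in HCT-116 cells by FRET fluorescence, following 16 h incubation with test compounds at 37 °C and 2 h substrate development at room temperature.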
# [2] = qHTS assay for small molecule disruptors of the mitochondrial membrane potential (AID 720635); settings: HepG2 mitochondrial membrane potential, Mito-MPS dye ratio; ratio activity, negative = MMP loss: at 83.2 µM (top of the series) unless noted
# Procedure, shortened: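 HepG2 cells exposed to compound 1 hr at 37C, then Mito-MPS dye 30 min. Ratio read of aggregate (540/590 nm) versus monomer (490/535 nm) fluorescence.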
# [3] = molecular target: Glucocorticoid receptor (Homo sapiens) (UniProt P04150); experiment: qHTS assay to identify small molecule antagonists of the glucocorticoid receptor (GR) signaling pathway (AID 720692; active = well fitted inhibition curve with a large enough effect in the signal ratio in the repeat runs, not every such curve was filed as active; inconclusive = weak or mixed curves, or effect the other way; inactive = no such curve, though single readings can be large or run the other way; the % refers to the signal ratio; as to activity change, negative = inhibition: % is scaled to controls: 0 for no effect and ±100 for the full control effect); settings: GR-bla HeLa, beta-lactamase FRET ratio, dexamethasone-stimulated, 18 h
# Sequence of UniProt P04150 (P04150 whole entry, looked up): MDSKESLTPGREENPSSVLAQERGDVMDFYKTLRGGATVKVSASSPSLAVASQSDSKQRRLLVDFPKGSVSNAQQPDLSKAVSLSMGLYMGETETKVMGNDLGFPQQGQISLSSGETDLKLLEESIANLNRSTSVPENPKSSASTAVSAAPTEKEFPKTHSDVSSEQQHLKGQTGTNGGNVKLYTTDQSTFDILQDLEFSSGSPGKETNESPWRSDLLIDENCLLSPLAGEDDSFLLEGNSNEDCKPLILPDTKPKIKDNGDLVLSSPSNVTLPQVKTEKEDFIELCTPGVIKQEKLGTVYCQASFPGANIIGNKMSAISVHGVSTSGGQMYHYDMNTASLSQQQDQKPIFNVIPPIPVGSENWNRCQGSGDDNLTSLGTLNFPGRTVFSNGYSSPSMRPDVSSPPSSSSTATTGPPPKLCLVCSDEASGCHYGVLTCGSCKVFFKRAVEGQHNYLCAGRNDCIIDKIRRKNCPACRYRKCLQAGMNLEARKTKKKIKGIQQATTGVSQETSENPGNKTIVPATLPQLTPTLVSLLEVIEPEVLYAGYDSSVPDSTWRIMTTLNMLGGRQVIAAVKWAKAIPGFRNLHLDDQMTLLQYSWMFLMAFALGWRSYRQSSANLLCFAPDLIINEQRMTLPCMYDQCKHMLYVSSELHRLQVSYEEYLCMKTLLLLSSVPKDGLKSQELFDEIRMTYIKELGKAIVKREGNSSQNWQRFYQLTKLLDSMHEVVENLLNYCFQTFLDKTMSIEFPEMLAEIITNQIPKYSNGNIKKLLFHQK
# Procedure, shortened: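 GR-bla HeLa cells (beta-lactamase reporter under glucocorticoid response element) were pre-plated 4 h at 37 C, treated with compounds plus 5 nM dexamethasone (final) for 18 h, then read by LiveBLAzer B/G FRET fluorescence after 2 h.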
# [4] = molecular target: Estrogen receptor (Homo sapiens) (UniProt P03372); experiment: qHTS assay to identify small molecule antagonists of the estrogen receptor alpha (ER-alpha) signaling pathway (AID 743069; active = well fitted curve in the direction sought with a large enough effect in the signal ratio in the repeat runs, not every such curve was filed as active; inconclusive = weak or mixed curves, or effect the other way; inactive = no such curve, though single readings can be large or run the other way; the % refers to the signal ratio; as to activity, negative = inhibition: % is scaled to controls: 0 for no effect and ±100 for the full control effect); settings: HEK293 ER-alpha-UAS-bla, beta-lactamase ratio, antagonist mode; activity, negative = inhibition: at 69.4 µM (top of the series) unless noted
# Sequence of UniProt P03372 (P03372 whole entry, looked up): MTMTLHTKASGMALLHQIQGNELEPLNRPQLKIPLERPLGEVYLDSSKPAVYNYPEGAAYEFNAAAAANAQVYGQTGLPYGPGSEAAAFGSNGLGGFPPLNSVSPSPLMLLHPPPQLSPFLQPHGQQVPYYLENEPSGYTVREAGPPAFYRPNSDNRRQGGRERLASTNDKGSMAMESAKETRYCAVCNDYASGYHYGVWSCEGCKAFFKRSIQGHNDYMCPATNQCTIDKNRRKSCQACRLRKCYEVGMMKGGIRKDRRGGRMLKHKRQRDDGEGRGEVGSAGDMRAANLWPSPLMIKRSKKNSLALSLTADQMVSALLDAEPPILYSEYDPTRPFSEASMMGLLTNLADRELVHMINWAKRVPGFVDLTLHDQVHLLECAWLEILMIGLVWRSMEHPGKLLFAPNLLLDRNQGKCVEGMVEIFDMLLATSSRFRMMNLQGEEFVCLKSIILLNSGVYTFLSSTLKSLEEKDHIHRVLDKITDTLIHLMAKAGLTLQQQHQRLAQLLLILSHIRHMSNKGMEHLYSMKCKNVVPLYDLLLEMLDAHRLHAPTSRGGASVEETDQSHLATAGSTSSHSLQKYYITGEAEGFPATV
# Procedure, shortened: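 Reporter cells (ER-alpha-bla, HEK293 background) are conditioned overnight in stripped-serum medium (2% charcoal-stripped FBS). Compound and 17beta-estradiol exposure runs 18 hr at 37C, 5% CO2.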
# [5] = qHTS assay to identify small molecule antagonists of the estrogen receptor alpha (ER-alpha) signaling pathway using the BG1 cell line (AID 743080; calls by dose curve;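 also: BG1 cells stimulated with 17beta-estradiol alongside compound; nearly all actives have a fitted effect of over 25% in size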; as to activity change, negative = inhibition: % is scaled to controls: 0 for no effect and ±100 for the full control effect); settings: BG1Luc4E2 ERE-luciferase antagonist mode, luminescence; activity change, negative = inhibition: at 70.3 µM (top of the series) unless noted
# Procedure, shortened: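 BG1-Luc-4E2 cells (endogenous full-length ER-alpha, 4xERE luciferase) hormone-starved 5 days in charcoal-stripped FBS, plated 4,000/well for 24 h, then compound plus 17beta-estradiol for 21.5 h at 37 C; ONE-Glo luminescence read.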
# [6] = qHTS assay to identify small molecule antagonists of the estrogen receptor alpha (ER-alpha) signaling pathway using the BG1 cell line - cell viability counter screen (AID 743081); settings: BG1Luc4E2 viability, CellTiter-Fluor, 22 h;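 also: compound given together with 17beta-estradiol as the ER stimulus; nearly all actives have a fitted effect of over 45% in size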; as to activity change, negative = cytotoxicity: % is scaled to controls: 0 for no effect and ±100 for the full control effect
# [7] = molecular target: Glucocorticoid receptor (Homo sapiens) (UniProt P04150); experiment: qHTS assay to identify small molecule agonists of the glucocorticoid receptor (GR) signaling pathway (AID 720691; active = well fitted activation curve with a large enough effect in the signal ratio in the repeat runs, not every such curve was filed as active; inconclusive = weak or mixed curves, or effect the other way; inactive = no such curve, though single readings can be large or run the other way; the % refers to the signal ratio); settings: GR-bla HeLa, beta-lactamase reporter ratio, 18 h; activation: at 62.4 µM (top of the series) unless noted
# Procedure, shortened: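 GR-bla HeLa cells (beta-lactamase reporter under glucocorticoid response element) were plated 4 h at 37 C/5% CO2, given compounds in DMSO, and incubated 18 h at 37 C. LiveBLAzer B/G FRET substrate was added for 2 h at room temperature, then fluorescence intensity read.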
# [8] = qHTS assay for identifying genotoxic compounds that show differential cytotoxicity against isogenic chicken DT40 cell lines with known DNA damage response pathways - Rev3 mutant cell line (AID 743014); settings: chicken DT40 Rev3-/- viability, CellTiter-Glo, 40 h; activity, negative = cytotoxicity: at 68.4 µM (top of the series) unless noted; also: nearly all actives have a fitted effect of over 55% in size
# [9] = molecular target: Estrogen receptor (Homo sapiens) (UniProt P03372); experiment: qHTS assay to identify small molecule agonists of the estrogen receptor alpha (ER-alpha) signaling pathway using the BG1 cell line (AID 743079); settings: BG1Luc4E2 cells, ERE-luciferase agonist, 22 h; activation: at 70.3 µM (top of the series) unless noted; also: nearly all actives have a fitted effect of over 20% in size
# [10] = molecular target: Peroxisome proliferator-activated receptor gamma (Homo sapiens) (UniProt P37231); experiment: qHTS assay to identify small molecule agonists of the peroxisome proliferator-activated receptor gamma (PPARg) signaling pathway (AID 743094; active = well fitted activation curve with a large enough effect in the signal ratio in the repeat runs, not every such curve was filed as active; inconclusive = weak or mixed curves, or effect the other way; inactive = no such curve, though single readings can be large or run the other way; the % refers to the signal ratio); settings: HEK293H PPARg-UAS-bla, beta-lactamase FRET ratio, 17 h; activation: at 57 µM (top of the series) unless noted
# Sequence of UniProt P37231 (P37231 whole entry, looked up): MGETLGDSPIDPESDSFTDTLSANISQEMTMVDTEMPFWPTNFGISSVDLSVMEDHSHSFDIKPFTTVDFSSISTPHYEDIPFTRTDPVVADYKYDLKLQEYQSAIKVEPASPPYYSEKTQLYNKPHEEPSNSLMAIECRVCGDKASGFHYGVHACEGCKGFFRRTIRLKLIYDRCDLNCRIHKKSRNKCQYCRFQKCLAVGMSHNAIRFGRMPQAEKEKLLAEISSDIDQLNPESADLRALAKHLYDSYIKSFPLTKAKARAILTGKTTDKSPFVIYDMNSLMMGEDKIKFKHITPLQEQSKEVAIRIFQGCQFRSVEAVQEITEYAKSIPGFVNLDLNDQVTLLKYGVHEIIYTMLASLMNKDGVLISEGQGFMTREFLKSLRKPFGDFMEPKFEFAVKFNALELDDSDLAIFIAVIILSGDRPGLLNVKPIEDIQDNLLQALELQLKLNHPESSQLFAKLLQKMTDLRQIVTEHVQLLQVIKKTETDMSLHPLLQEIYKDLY
# Procedure, shortened: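 GeneBLAzer PPARg UAS-bla HEK293H cells carrying a stably integrated beta-lactamase reporter were pre-incubated 5 h at 37C, then exposed to compounds in DMSO for 17 h at 37C; LiveBLAzer B/G FRET substrate was added for 1 h at room temperature and fluorescence read.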
# [11] = qHTS assay for identifying genotoxic compounds that show differential cytotoxicity against isogenic chicken DT40 cell lines with known DNA damage response pathways - wild type cell line (AID 743012); settings: DT40 wild type chicken cells viability, CellTiter-Glo, 40 h; activity change, negative = cytotoxicity: at 68.4 µM (top of the series) unless noted; also: nearly all actives have a fitted effect of over 60% in size
# Procedure, shortened: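 Parental DNA repair-proficient DT40 cells, 300 per well, were pre-incubated ~0.5 h at 37 C/5% CO2, pin-dosed with compounds in DMSO, then incubated 40 h. Viability was read as CellTiter-Glo luminescence after 30 min at room temperature.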
# [12] = qHTS assay to identify small molecule antagonists of the androgen receptor (AR) signaling pathway using the MDA cell line - cell viability counter screen (AID 743041; also: nearly all actives have a fitted effect of over 45% in size); settings: MDA-kb2 viability, CellTiter-Fluor, 16 h, cells co-treated with R1881 androgen agonist; viability change, negative = cytotoxic: at 70.3 µM (top of the series)
# Procedure, shortened: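 Same-well cytotoxicity was assessed by CellTiter-Fluor in MDA-kb2 AR-luc cells after 16 h of compound treatment under R1881 agonism.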
# [13] = qHTS assay to identify small molecule antagonists of the thyroid receptor (TR) signaling pathway - cell viability counter screen (AID 743064); settings: GH3.TRE-Luc viability, CellTiter-Fluor, 24 h; activity change, negative = cytotoxic: at 70.3 µM (top of the series) unless noted; also: nearly all actives have a fitted effect of over 50% in size
# Procedure, shortened: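 CellTiter-Fluor readout, 30 min at 37 °C/5% CO2, following 23.5 h incubation of GH3.TRE-Luc cells with test compound and 1 nM T3 (final).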
# [14] = qHTS assay to identify small molecule antagonists of the estrogen receptor alpha (ER-alpha) signaling pathway - cell viability counter screen (AID 743074; calls by dose curve;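 also: HEK293 cells carrying ER-alpha-UAS-bla reporter stimulated with 17beta-estradiol; nearly all actives have a fitted effect of over 45% in size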)
# [15] = qHTS assay to identify aromatase inhibitors - cell viability counter screen (AID 743084); settings: MCF-7 aro ERE viability, CellTiter-Fluor, 24 h; activity change, negative = cytotoxicity: at 70.3 µM (top of the series) unless noted;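 also: cells stimulated with testosterone during compound exposure; nearly all actives have a fitted effect of over 55% in size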
# [16] = qHTS assay for identifying genotoxic compounds that show differential cytotoxicity against isogenic chicken DT40 cell lines with known DNA damage response pathways - Rad54/Ku70 mutant cell line (AID 743015); settings: DT40 Rad54/Ku70 mutant viability, CellTiter-Glo, 40 h; activity change, negative = cytotoxicity: at 66.8 µM (top of the series) unless noted; also: nearly all actives have a fitted effect of over 60% in size
# [17] = qHTS assay to identify small molecule antagonists of the glucocorticoid receptor (GR) signaling pathway - cell viability counter screen (AID 720693); settings: GR-bla HeLa viability, CellTiter-Glo luminescence, 18 h, with 5 nM dexamethasone present; viability change, negative = cytotoxic: at 58.5 µM (top of the series); also: nearly all actives have a fitted effect of over 55% in size
# [18] = activity change, negative = inhibition: at 58.5 µM (top of the series) unless noted
# [19] = activity change, negative = cytotoxicity: at 70.3 µM (top of the series) unless noted
# Potency is read from the fitted curve at half-maximal effect; tags tell the direction and shape of the fitted curve or compound fluorescence and quenching.
structure (smiles),measurement,setting,value
NCCCC[C@H](NC(=O)[C@@H]1CCCN1C(=O)[C@@H]1CSSC[C@H](N)C(=O)N[C@@H](Cc2ccc(O)cc2)C(=O)N[C@@H](Cc2ccccc2)C(=O)N[C@@H](CCC(N)=O)C(=O)N[C@@H](CC(N)=O)C(=O)N1)C(=O)NCC(N)=O,Potency,[1],inconclusive: 29.8 µM [activator]
same,Potency,[2],"inconclusive: 33.5 µM [inhibitor, single point]"
same,"activity change, negative = inhibition",[3]; [18],inconclusive: -0.744%
same,"activity change, negative = inhibition",[3]; at 58.5 µM (top of the series),inactive: -3.01%
same,Potency,[4],inactive
same,Potency,[5],inactive
same,"activity change, negative = cytotoxicity",[6]; [19],inconclusive: 18.4%
same,"activity change, negative = cytotoxicity",[6]; at 70.3 µM (top of the series),inactive: 21.3%
Cc1c(N)nc([C@H](CC(N)=O)NC[C@H](N)C(N)=O)nc1C(=O)N[C@H](C(=O)N[C@H](C)[C@@H](O)[C@H](C)C(=O)N[C@H](C(=O)NCCc1nc(-c2nc(C(=O)NCCCCN=C(N)N)cs2)cs1)[C@@H](C)O)[C@@H](O[C@@H]1O[C@@H](CO)[C@@H](O)[C@H](O)[C@@H]1O[C@H]1O[C@H](CO)[C@@H](O)[C@H](OC(N)=O)[C@@H]1O)c1cnc[nH]1,Potency,[1],active: 841 nM and active: 66.8 nM
same,Potency,[2],inactive
same,Potency,[7],active: 0.848 µM [inconclusive]
same,Potency,[3]; [18],"inconclusive: 1.51 µM [activator, full curve]"
same,Potency,[8],"inconclusive: 2.11 µM [cytotoxic, full curve]"
same,Potency,[9],inactive
same,"activity change, negative = inhibition",[5],inconclusive: 0.0525% and inconclusive: -3.77%
same,Potency,[6]; [19],"inconclusive: 23.7 µM [cytotoxic, partial curve, poor fit]"
same,activation,[10],inconclusive: -17%
Cc1cc2nc3c(=O)[nH]c(=O)nc-3n(C[C@H](O)[C@H](O)[C@H](O)COP(=O)(O)OP(=O)(O)OC[C@H]3O[C@@H](n4cnc5c(N)ncnc54)[C@H](O)[C@@H]3O)c2cc1C,Potency,[1],"inconclusive: 23.7 µM [rising, partial curve]"
same,Potency,[2],"inconclusive: 19.7 µM [rising, partial curve]"
same,Potency,[11],inactive
same,Potency,[12],"inconclusive: 29.8 µM [rising, partial curve]"
same,Potency,[13],"inconclusive: 23.7 µM [rising, partial curve]"
same,Potency,[4],inconclusive: 21.3 µM
same,Potency,[14],active: 16.9 µM
same,Potency,[6]; [19],"inconclusive: 29.8 µM [rising, partial curve]"
same,Potency,[15],"inconclusive: 33.5 µM [cytotoxic, single point]"
same,Potency,[10],inconclusive: 23.9 µM
Cc1cc(Nc2ccccc2C(=O)O)ccc1Cl,Potency,[1],active: 15 µM
same,Potency,[2],active: 11.9 µM
same,Potency,[11],"inconclusive: 33.5 µM [cytotoxic, single point]"
same,Potency,[16],"inconclusive: 33.5 µM [cytotoxic, single point]"
same,activation,[9],inconclusive: 15.1% [phenotype inactive]
same,Potency,[6]; [19],"inconclusive: 13.3 µM [rising, single point]"
same,activation,[10],inconclusive: -15.4%
CN1CCc2c(c3ccccc3n2Cc2ccccc2)C1,Potency,[1],"inconclusive: 7.17 µM [rising, partial curve, poor fit]"
same,"ratio activity, negative = MMP loss",[2],inconclusive: 24.9% [at 39.1 µM]
same,Potency,[11],"inconclusive: 12.7 µM [cytotoxic, single point]"
same,Potency,[16],"inconclusive: 14.3 µM [cytotoxic, single point]"
same,Potency,[13],"inconclusive: 9.02 µM [cytotoxic, partial curve, poor fit]"
same,Potency,[14],"inconclusive: 0.102 µM [rising, full curve, poor fit]"
same,Potency,[6]; [19],inactive
CC[C@@H](C(=O)[C@@H](C)[C@@H](O)[C@H](C)CCc1ccc(C)c(O)c1C(=O)O)[C@H]1O[C@](CC)([C@H]2CC[C@](O)(CC)[C@H](C)O2)C[C@@H]1C,Potency,[1],active: 23.7 µM
same,Potency,[2],active: 1.06 µM
same,Potency,[3]; [18],"inconclusive: 23.9 µM [falling, partial curve]"
same,Potency,[12],active: 11.1 µM
same,Potency,[4],"inconclusive: 10.7 µM [fluorescent, partial curve]"
same,Potency,[14],active: 19 µM
same,Potency,[5],"inconclusive: 2.66 µM [rising, partial curve]"
same,Potency,[6]; [19],"inconclusive: 29.8 µM [cytotoxic, partial curve]"
same,Potency,[15],"inconclusive: 33.5 µM [cytotoxic, single point]"
CCCCCCCCCCCCCCCCOCCOCCOCCOCCOCCOCCOCCOCCOCCOCCOCCOCCOCCOCCOCCOCCOCCOCCOCCOCCO,Potency,[1],"inconclusive: 8.41 µM [cytotoxic, full curve]"
same,Potency,[2],active: 23.7 µM
same,Potency,[7],"inconclusive: 26.8 µM [cytotoxic, single point]"
same,Potency,[3]; [18],"inconclusive: 21.3 µM [cytotoxic, partial curve]"
same,Potency,[17],active: 13.4 µM
same,Potency,[11],active: 2.37 µM
same,Potency,[8],inconclusive: 33.5 µM [cytotoxic]
same,Potency,[12],active: 29.8 µM
same,Potency,[13],active: 29.8 µM
same,Potency,[4],active: 4.25 µM [inconclusive]
same,Potency,[14],active: 21.3 µM
same,Potency,[9],"inconclusive: 3.76 µM [inhibitor, full curve]"
same,Potency,[5],active: 3.76 µM
same,Potency,[6]; [19],active: 23.7 µM
same,Potency,[15],"inconclusive: 33.5 µM [cytotoxic, single point]"
same,Potency,[10],inconclusive: 26.8 µM [single point]
